# Measured values as given in PubChem BioAssay AID1240 (Sanford-Burnham Center for Chemical Genomics, 2008).
# Screen size: about 50,000 compounds; about 800 (1.6%) showed an effect of 50% or more. Some of the results follow.
# Target: Bcl-2-like protein 10 (Homo sapiens) (UniProt Q9HD36)
# Assay: Phenotype converters, Bcl-B/TR3 peptide binding displacement, primary biochemical FP (AID 1240);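 note: 0% = Bcl-B with tracer peptide and DMSO and 100% = tracer peptide lacking Bcl-B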
# Conditions: GST-Bcl-B / FITC-TR3 peptide fluorescence polarization; stronger effect = higher value; compound at 3.75 mg/L
# Sequence of UniProt Q9HD36 (Q9HD36 whole entry, looked up): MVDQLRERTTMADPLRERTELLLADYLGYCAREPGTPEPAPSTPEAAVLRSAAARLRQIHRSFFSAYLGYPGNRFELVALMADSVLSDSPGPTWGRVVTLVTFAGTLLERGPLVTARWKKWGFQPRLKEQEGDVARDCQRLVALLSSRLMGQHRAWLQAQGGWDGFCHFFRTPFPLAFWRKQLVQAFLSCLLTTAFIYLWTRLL
row,Structure (SMILES),displacement
1,COc1ccc(N2CCSC2c2ccco2)cc1 (stereo not given),12.3%
2,COc1ccc(/C=C(/c2ccccc2)c2nc3ccccc3[nH]2)cc1,-17.4%
3,COc1ccccc1NC(=O)C1=C(C)NC(=O)NC1c1cccc(OC)c1OC (stereo not given),-7.9%
4,CC(=O)OC12CC3C(C1C(C)=NN2C(=O)C(=O)N1N=C(C)C2C4C(CC21OC(C)=O)C4(C)C)C3(C)C (stereo not given),8.5%
5,Cc1ccc(NC(=O)c2cccc3ccccc23)c([N+](=O)[O-])c1,13.9%
6,COc1cc(CN2CCN(C(=O)c3ccc(-c4ccccc4)cc3)CC2)cc(OC)c1OC,-1.4%
7,Cn1c2c(c(=O)n(C)c1=O)C(c1ccc(OC(=O)c3ccc(Br)cc3)cc1)C1C(=O)c3ccccc3C1=N2 (stereo not given),3%
8,Cn1c(-c2ccccc2)c(-c2ccccc2)n(C)c1=O,4.7%
9,O=P(COc1ccccc1)(c1ccccc1)c1ccccc1,-3.3%
10,O=C(Nc1ccc(S(=O)(=O)Nc2cnc3ccccc3n2)cc1)c1cc(Cl)ccc1[N+](=O)[O-],14.3%
11,O=C(Nc1ccccc1C(=O)Nc1ccccc1)c1ccccc1F,-10%
12,O=C(Nc1ccc(S(=O)(=O)N2CCCCCC2)cc1)c1ccc(-c2ccccc2)cc1,5.3%
13,O=C(O)c1cc([N+](=O)[O-])c(C(=O)O)cc1Oc1cc(Cl)c(Cl)cc1Cl,3.3%
14,Cc1ccc([N+](=O)[O-])cc1S(=O)(=O)n1nnc2ccccc21,2.8%
15,N#C/C(=C\c1ccc(Cl)cc1)c1nn(CCO)c(N)c1C#N,11.2%
16,C=CCOc1ccc(/C=C2\C(=O)N(CCOC)C(C)=C2C(=O)OCC)cc1,-3.4%
17,CC(C)(C)C1=NN(C(=O)c2ccccc2)C(O)(C(C)(C)C)C1 (stereo not given),11%
18,O=C1C2C3C=CC(C2C(=O)N1c1ccc(F)cc1)C1C(=O)N(c2ccc(F)cc2)C(=O)C31 (stereo not given),3.3%
19,Cc1cc(NS(=O)(=O)c2ccc(Nc3nc(-c4ccccn4)cs3)cc2)no1,14.7%
20,c1cc2c3c(cccc3c1)-c1nc3nonc3nc1-2,-9.1%
21,COc1ccc(/C=C/C(=O)Nc2ccc(Cl)c3c2C(=O)c2ccccc2C3=O)cc1,12.8%
22,COc1ccc(CNC(=O)COc2ccc(Br)c(C)c2)cc1,-7.9%

row,Structure (SMILES),displacement
1,CN1C(=O)C2(NN=C(c3ccccc3)S2)c2ccccc21 (stereo not given),-14.6%
2,Cc1ccc(NC(=O)CN(c2cccc(Br)c2)S(=O)(=O)c2ccccc2)cc1C,4.5%
3,O=C1CCCCCC1CN1CCCCC1 (stereo not given),9.8%
4,CCOc1ccc(C2OC3(C(=O)c4ccccc4C3=O)C3C(=O)N(c4ccc(Cl)cc4)C(=O)C23)cc1 (stereo not given),0.4%
5,Cc1cccc(N2C(=O)c3cccc4c(N5CCOCC5)ccc(c34)C2=O)c1,154%
6,O=C(CCCOc1ccccc1)Nc1ccccc1F,-2.5%
7,CCOc1ccc2nc(SCC(=O)Nc3ccc(OC)cc3OC)sc2c1,16.2%
8,CC(=O)ON1C(c2ccccc2)N=C(c2ccccc2)C1(C)C (stereo not given),-3.8%
9,CC(=O)N/C(=N\c1nc(C)cc(C)n1)Nc1ccc(Cl)cc1Cl,-1%
10,O=C(Nc1ccccc1)C1CC(=O)N(c2ccc(Br)cc2)C1 (stereo not given),13.2%
11,O=[N+]([O-])c1ccc(Nc2ccc(Br)cc2)nc1,-6.7%
12,O=C(c1ccc([N+](=O)[O-])cc1)N1CCN(Cc2cccc(Br)c2)CC1,-1.9%
13,CCc1ccc(C(=O)CSc2n[nH]c(-c3ccccc3)n2)cc1,11.5%
14,O=[N+]([O-])c1cccc(-c2noc(-c3ccc(I)cc3)n2)c1,3.9%
15,NS(=O)(=O)c1ccc(CCNC(=O)Nc2ccc(Cl)cc2)cc1,11.1%
16,CCCCOc1ccc(C(=O)N2CCN(c3cccc(C)c3C)CC2)cc1,-8.2%
17,O=C1CS/C(=N\N=C\c2cccc(Br)c2)N1,12.2%
18,CN1CCN(C(=O)c2cccc3ccccc23)CC1,2.5%
19,CC(=O)Nc1ccc(/C=C2\C(=O)NN(c3ccccc3)C2=O)cc1,-19%
20,CC(C)N1CCC(=NNC(=O)C2CC2)CC1,-0.9%
21,CCCC(=O)Nc1cccc(NC(=O)c2ccc(-c3cccc(Cl)c3C)o2)c1,-13.7%
22,CCOC(=O)C(=CNc1ccc(OCc2ccccc2)cc1)C(=O)OCC,-0.6%

row,Structure (SMILES),displacement
1,O=c1[nH]c(O)c(C=NCc2ccccc2)c(=O)[nH]1,0.8%
2,C=CCOc1ccc(Cl)cc1C=C1C(=O)NC(=O)NC1=O,11.4%
3,O=c1oc2ccc([N+](=O)[O-])cc2cc1-c1nc2ccccc2o1,-4.7%
4,CC(=O)C1C(c2ccc(N(C)C)cc2)c2c(noc2C)CC1(C)O (stereo not given),-4.6%
5,CCC(C)NS(=O)(=O)c1ccc([N+](=O)[O-])cc1 (stereo not given),2.7%
6,C=C1c2ccc(C)cc2NC(=O)N1c1ccc(Cl)cc1,-15.9%
7,CCOC(=O)c1oc2ccc(CNC3CCCCC3)c(Cl)c2c1C,-6.7%
8,CCOC(=O)c1c(CN2CCCCC2)n(C)c2cc(Br)c(O)cc12,-3.6%
9,CCOC(=O)c1c(C)[nH]c2cc(Br)c(OC)cc12,-17.8%
10,CCN(CC)C(=O)C1CC(=O)OC12CCCCC2 (stereo not given),-8.4%
11,COc1cc(/C=C2\SC(=S)N(NC(=O)c3ccncc3)C2=O)ccc1OCc1ccccc1Cl,-12.2%
12,CC1CCCN(C(=O)C(Sc2ccccc2)c2ccccc2)C1 (stereo not given),7.1%
13,N#CC(C#N)=NNc1ccc(O)c(C(=O)O)c1,18.2%
14,Cc1ccc(/C=C2\SC(=O)N(CCC(=O)NNC(=O)c3cccc(Cl)c3)C2=O)cc1,0.6%
15,COCCNCC(=O)C12CC3CCC(CC(C3)C1)C2,-0.8%
16,CCOc1cc(/C=N/NC(=O)CC2C(=O)NN=C2C)ccc1O (stereo not given),-6.7%
17,CCOC(=O)/C=C(\C)CC/C=C(/C)CC,-4.1%
18,COc1ccc(S(=O)(=O)NNC(=O)C23CC4CC(CC(C4)C2)C3)cc1,11.9%
19,O=C(Cc1ccccc1)NN1C(=O)/C(=C/c2cccs2)SC1=S,24.9%
20,Cc1ccc(C(=O)Nc2ccc(Cl)cc2C)cc1,-12.9%
21,CC(C)(C)c1cc(/C=N/O)c(C(C)(C)C)s1,-2.4%
22,CC(C)CNC(=O)c1cccc(NC(=O)CN2C(=O)c3ccccc3C2=O)c1,13.8%

row,Structure (SMILES),displacement
1,Cc1cccc(C(=O)Nc2ccc(Oc3ccccc3)cc2)c1,-0.1%
2,O=C(Oc1ccc(/C=N/n2cnnc2)cc1)c1ccco1,-7.8%
3,CN(C)c1ccc(/C=C2/C(=O)NN(c3cccc(Cl)c3)C2=O)cc1,13.5%
4,Cc1cc(C)c2nc3s/c(=C\c4ccc(-c5cc(C)c(C)cc5[N+](=O)[O-])o4)c(=O)n3c2c1,-4.7%
5,O=C(Nc1ccc(F)c(Cl)c1)c1ccc([N+](=O)[O-])cc1,6.3%
6,Cc1cc(Br)ccc1NC(=O)c1ccc(C)c([N+](=O)[O-])c1,8.6%
7,COc1ccc2c(c1OC)C(=O)OC2Nc1ccc(S(N)(=O)=O)cc1 (stereo not given),3.9%
8,Cc1oc(-c2ccccc2)cc1C(=O)O,-10.4%
9,Cc1cc(C)nc(SCC(=O)N/N=C/c2ccc(O)cc2)n1,3.9%
10,O=C(CN1C(=O)c2ccccc2C1=O)Nc1cc([N+](=O)[O-])ccc1Cl,14.5%
11,O=C(Nc1ccccc1Cl)C(c1ccccc1)c1ccccc1,5.9%
12,CCc1nnc(/N=C/c2c(C)[nH]n(-c3ccc(C)c(C)c3)c2=O)s1,1.2%
13,Cc1ccccc1C(=O)Oc1ccccc1C(=O)N1CCOCC1,-6.6%
14,COC(=O)c1ccc(C(=O)OC)c(NC(=O)CCC(=O)O)c1,8.2%
15,COc1ccc(/C=C2\C(=O)NC(=O)N(c3cc(C)cc(C)c3)C2=O)cc1[N+](=O)[O-],-14.2%
16,CCN(C(=O)c1c(-c2c(Cl)cccc2Cl)noc1C)c1ccccc1C,6.8%
17,CC(=O)Nc1ccc(NS(=O)(=O)Cc2ccccc2)cc1,12.8%
18,CCOC(=O)NC(NC(=O)OCC)c1cccc([N+](=O)[O-])c1,-5.1%
19,Cc1ccc(NC(=O)COc2ccc(Br)c(C)c2)c([N+](=O)[O-])c1,11.5%
20,Cc1ccccc1C(=O)NNC(=O)c1cccc2ccccc12,-7.1%
21,CCOc1ccc(NC(=O)c2c(NC(=O)c3ccc([N+](=O)[O-])cc3)sc3c2CCCC3)cc1,1%
22,COc1ccccc1CC(=O)Nc1ccc(Br)cc1C,-6.4%

row,Structure (SMILES),displacement
1,Cc1cc(=O)[nH]c(SCC(=O)c2ccc(Br)cc2)c1C#N,1.1%
2,Cc1nc2ccc(NC(=S)N(C)C)cc2nc1C,-12%
3,CC(=O)Nc1cc(-c2ccc(Br)cc2)nn1Cc1ccccc1,-4.8%
4,O=C(Nc1ccccc1)/C(=C\c1ccco1)NC(=O)c1ccco1,-5.8%
5,O=C(Cc1ccccc1)N1N=C(c2cccc(Br)c2)CC1(O)C(F)(F)F (stereo not given),6.6%
6,Cc1cc(C)c(OCC(=O)Nc2c(C)cccc2C)c(C)c1,11.7%
7,O=C(/C=C/c1ccccc1)NC(=S)Nc1cccc2ccccc12,-5%
8,COC(=O)c1c(C)oc2ccc(OC/C=C/c3ccccc3)cc12,8.9%
9,CCOc1ccccc1NC(=O)c1c(Cl)cccc1Cl,-2.2%
10,Cc1cc(C)nc(/N=C(\N)Nc2cc(Cl)cc(Cl)c2)n1,12.3%
11,COC(=O)c1ccc(C(=O)Nc2cc(Cl)ccc2Cl)cc1NC(=O)COc1ccc(F)cc1,9.9%
12,CCOC(=O)CSCc1nc2c(c(=O)[nH]1)C1(CCCC1)Cc1ccccc1-2,0%
13,O=C1N/C(=N\N=C\c2ccccc2F)SC1Cc1ccccc1[N+](=O)[O-] (stereo not given),7.3%
14,O=C1CC(c2ccccc2)CC2=C1C(c1coc3ccccc3c1=O)Nc1ccccc1N2 (stereo not given),-3.3%
15,O=C1CC(Sc2nc3ccccc3s2)C(=O)N1c1ccccc1I (stereo not given),-17.4%
16,COc1ccc(CCNC(=O)COc2cc(C)c(Cl)c(C)c2)cc1,7.5%
17,COCCOC(=O)c1c(C)oc2ccc(OC(=O)c3cccs3)cc12,6.9%
18,COc1ccc(CCNc2cc(N3CCOCC3)ccc2[N+](=O)[O-])cc1OC,7.3%
19,COc1ccc(/C=C2\SC(=S)NC2=O)cc1C,44.9%
20,COc1ccc([N+](=O)[O-])cc1NC(=O)Cc1ccc(OC)c(OC)c1,-5.7%
21,COc1cc(S(=O)(=O)N2CCOCC2)c(OC)cc1Cl,-6%
22,NC(=O)C(=O)NCc1ccc(Cl)cc1,6.7%
